The labels stand for the following.
B1: CPEB3 Ribozyme (parent)
chain: UAACAGGGGGCCACAGCAGAAGCGUUCACGUCGCAGCCCCUGUCAGAUUCUGGUGAAUCUGCGAAUUCUGCUGUAUAUCUC

The source gives no read counts; variants with many changes may rest on few reads.

In the data set the parent is B1. Put plainly: self-cleavage, relative activity (ratio to wild type); higher = more cleavage; in vitro, sequencing. The method in brief:
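CPEB3 self-cleaving ribozyme mutant libraries were made by rounds of error-prone PCR, barcoded, and transcribed in vitro with T7 RNA polymerase for 5 hours at 37°C. Cleavage occurred during transcription and a 15 min DNase I step before EDTA stop. RNAs were reverse transcribed with template switching and Illumina-sequenced, with DNA sequencing mapping barcodes to variants. Relative activity is the variant's cleaved/total read fraction divided by wild type's (minimum 5 reads), averaged across three batches.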
For U26C A35G A45G A56G, the self-cleavage turned out to be 0.64. With C27A C34G A64G U72C, the self-cleavage came to 0.04. As to U26C A45G U51A, the self-cleavage was 0.27. Next, U26A A45C U58C: 0.05; U26A A28U C40U G52A A57G: 0.12; U26A A47G U48C U60C U69A U78C: 0.06. Next, U26C U48C A75U U80C: 0.15; U26A A45G A57G: 0.46.

As for U25G A57C U67A, the self-cleavage stood at 0.32. Next, U26C A35G U78G: 1.29; U26C A57U A64G: 0.11; C27A A28G U60C U66C U69C: 0.16. Next, U26C A45G U60C U74C: 0.72. To U26C U48C A56G G61A U67C belongs 0.06; to U26C U72A U78C, 0.33; to U26A U51C U72C, 0.74. On to U25C U60C C79A, for which the self-cleavage stood at 0.08. Next, U26G A35G U69C: 0.16.

For C27A A65G U72C, the self-cleavage amounted to 0.12. In the case of U26A U31C A35U U43C, the self-cleavage was found to be 0.38.

For U26C C40U U67C, the self-cleavage came to 0.15. To U26A G55A U76C belongs 0.93. Next, U26C A65G U69A A75U: 0.09.

Take U26C G63A U78C: the self-cleavage is 0.3. To U26C G36C C44U belongs 0.15. With U26A C40U A47G A57G G61A U78C, the self-cleavage amounted to 0.05. To U26A A65G U78C belongs 0.25.

For U25G C40U U74C, the self-cleavage stood at 0.35.

As to U25G U41C U49C A75G U78C, the self-cleavage was determined as 0.09. Next, U26A U54A U60C: 0.43; U26C U51C U80C: 0.33. Next, U26A G63A A65G: 0.51; U26A U31C A35U A45C: 0.15; U26G G52A U78A: 0.19. To C27A U49C A57U U58C U67C belongs 0.11; to U26A G33A U48C A64C U78C, 0.09; to U26A A45U U60C, 0.26.

On to U25C U48C U67A U80G, for which the self-cleavage was 0.06. To U25C U48C U66G U78C belongs 0.06; to U25C U54G U66C, 0.02. Next, U26A U41C U72G: 0.39. Next, U26C A28G U31C A35U: 0.11; U26A U49C U69A U74C U76C: 0.1; U26C G30A U58C: 0.16.

As for U26C U51C A64U, the self-cleavage turned out to be 0.09. In the case of U26C A35U U41A U66C, the self-cleavage is 0.2. To U26C A28G G30A U48C belongs 0.39; to U26A A47G U72C U78C, 1; to U26C C29U U41A U54C, 0.36. To U26A U31A U43C G55C A57G belongs 0.12.

For the variant U25C U49A A56G U60A U78C, the self-cleavage was 0.18.

For the variant U25C U60C C62U U72C A75G U80C, the self-cleavage worked out at 0.13.

In the case of U26A U41C A45U U48C A56G, the self-cleavage turned out to be 0.08. In the case of U26C U41A A56U U58A U72C, the self-cleavage was determined as 0.29. U26G A56G U72A: the self-cleavage was determined as 0.44. To U26C U60A A77C belongs 0.46; to U26C G73A U76A, 1.13. Next, U26A C34U A56G: 0.16; U26A A28U U78C: 0.43. To U26C U31C C44U belongs 0.16; to U26C A28U U41C, 0.4.

As for U26G G46U U48A U67C U76G, the self-cleavage was found to be 0.18.

Regarding U26C G52U A57G, the self-cleavage came out at 0.43.

Take U26A C32G U69C: the self-cleavage worked out at 0.09. To U26A U43C A47U A56G belongs 0.1. Next, U26C A57G U58C U80A: 0.19.

On to U25C U51A A56U U60A U66C, for which the self-cleavage was found to be 0.06. Next, U26A A47G U49A G53C G61C G70U U74C: 0.12; U26C U43C G46A U54C: 0.04; U26C U49C G73U U76C: 0.23. As to U26C A28G A35G A47G U67C, the self-cleavage is 0.1. Regarding U26A U48C U49C, the self-cleavage stood at 0.13. To U26C U48A C50G U51C A64G belongs 0.1. To U25C U74C U80C belongs 0.65. U26A U31C U41C A65G G73C U78C: the self-cleavage stood at 0.07. To U26A G33A U51C U66C belongs 0.05; to U26C A56G A57G C81U, 0.22.

Take U25C U48C U74A A77U: the self-cleavage came out at 0.19. As to U26C A45G U54C, the self-cleavage is 0.51. Next, U26A G30A U54C: 0.17. Consider U26C A56U A64U U72G, for which the self-cleavage stood at 0.15. To U26C U43C U60C U72A belongs 0.13; to U26C U43C U60C U72C, 0.27; to U26A G33A C44A U78A, 0.19. Next, U26A U72A U76C: 0.91; U26C A28G U41A U66C U78A: 0.05. Next, U26C G33A A45U A64G A65G: 0.23; U26C C39A U60C: 0.28. For the variant U26C G46A A47G U58C, the self-cleavage worked out at 0.08. Next, U26C C29U U31C C37U U58C U67A: 0.13. To U26C U41C A45G A47G A56U belongs 0.08. Turning to U25C U49C U72C, the self-cleavage came out at 0.05. Next, U26C U31G A75G: 0.08; U26C U51A A64G: 0.35; U26A A28G U31C U54C: 0.12. To U26A G33A C38U belongs 0.18; to U26C A47G G73A U76A, 0.76. To U26G U49C U51C A56G belongs 0.16. For U26C U60A U66C, the self-cleavage came out at 0.07.

Regarding U25C U60C A64U U69C, the self-cleavage came out at 0.14. Next, U26A U41A A45G U60A: 0.23.

In the case of U26C A35G U49A U60A U72A, the self-cleavage worked out at 0.18. To U26A A28U U66C A77G belongs 0.11; to U26C A45G A65G U78C, 0.06. To U26C A28G A45G U72C C79U belongs 0.32; to U26C C40A A45U A57G U60G, 0.18.

On to U26C U49A U72A, for which the self-cleavage came to 0.17.

For U26C U43C U49C A57G, the self-cleavage was determined as 0.08.

U26C U51C U54G U67C: the self-cleavage is 0.11. To U26C A35G U67C belongs 0.29; to U26C A28U A45G A65G, 0.15.

For U26C U60A U72C U80A, the self-cleavage is 0.29.

For U26C U49C G55A U69A A77C, the self-cleavage turned out to be 0.14. To C27A U31A U43C U54A belongs 0.22; to U26A U43A U49C U74G, 0.22; to U26C A28G C39A, 0.2.

In the case of U26C G52A U74G, the self-cleavage came out at 0.94. Turning to U25C U48A U49C C50A A77G, the self-cleavage came out at 0.07. Next, U26C A56G A65U: 0.14. To U26A U48A U49A A56G U60C U67C G70C belongs 0.05; to U26C U43C C62U U69C U74C, 0.15. Next, U26C C39U A57G A65G U72G U78C: 0.09. For U26C U60C U80A, the self-cleavage worked out at 0.14. To U26G A64G U78A belongs 0.18; to U26C U41A A64G U72C, 0.23; to U26A C44G U80C, 0.9.

For the variant U26C G36U U72C, the self-cleavage worked out at 0.16.

For U25G A45G U72A, the self-cleavage came out at 0.28.

For U26A A28G U43C A75U, the self-cleavage was determined as 0.09. To U26C A28U U67C belongs 0.14. Next, U26C U43C U49C U74A: 0.29; U25C U54C C62G: 0.18; U25C U43G U78C U80C: 0.21. Next, U26C A35G U49C A77U: 0.76; U26A U69C U72A: 0.37; U26A C38U C50U: 0.3.

On to U26C A64G A75U, for which the self-cleavage amounted to 0.49. To U25G C27U G36A A56G belongs 0.24. Next, U25C U54C A65G U66C C68A: 0.18.

For the variant U26C A57U C79A, the self-cleavage came out at 0.37. Next, U25C U58C U69A: 0.24; U26A A35U C38U A75U: 0.2; U25C U48C U54A A65G A77C: 0.19. Next, U26A U31A C37U A64U G70C U78C: 0.05; U26A U78C U80A: 0.9. To C27A A65U U69C G70C belongs 0.09; to U26C U54C U67C, 0.13.

Turning to U25C U67A U76A, the self-cleavage worked out at 0.39. Take U26A U74A U78C: the self-cleavage stood at 1.25.

Regarding U26A C29U U43A G63U A64G U76G A77U, the self-cleavage was 0.1. To U25C U69C C81A belongs 0.47. Next, U26C A28G C34U U78C: 0.15. For the variant U26C A28U A45G, the self-cleavage is 0.18.

As for U25C U43C U66A U67C, the self-cleavage was determined as 0.34. Next, U25C U58C U60A G73A: 0.2; U26C A45G U72C U78C: 0.14; U26C A65G U72A: 0.18.

As to U26C A64C U67C U80C, the self-cleavage amounted to 0.06. To U26C U31A C68U A75G belongs 0.06.

In the case of U26A A57G C62G C71U U74C, the self-cleavage is 0.18. Turning to U26A U31C U43G U51C U60C, the self-cleavage came to 0.07.

As to U25C U48C A56G A75U, the self-cleavage is 0.11.

Turning to U26C C29A G46A U67A U72A, the self-cleavage was determined as 0.06.

For U26C U67G U80C, the self-cleavage is 0.1. Next, U26G U72A A77G: 0.14; U26C A65G U80C: 0.38; U25G A35G U41A U43C: 0.06.

Values taken from the RNAGym collection of RNA variant scans (doi:10.1093/nar/gkz1192).
